# In the supplement of paper PMC3334620:
# The full ranking holds about 33,000 sequences; the median of “E-score (-0.5 to 0.5)” is about -0.012, and the highest 2% start at about 0.27. The list shows a part of the results.
# Target: T1, Vhr1 (UniProt P40522)
# T1 sequence: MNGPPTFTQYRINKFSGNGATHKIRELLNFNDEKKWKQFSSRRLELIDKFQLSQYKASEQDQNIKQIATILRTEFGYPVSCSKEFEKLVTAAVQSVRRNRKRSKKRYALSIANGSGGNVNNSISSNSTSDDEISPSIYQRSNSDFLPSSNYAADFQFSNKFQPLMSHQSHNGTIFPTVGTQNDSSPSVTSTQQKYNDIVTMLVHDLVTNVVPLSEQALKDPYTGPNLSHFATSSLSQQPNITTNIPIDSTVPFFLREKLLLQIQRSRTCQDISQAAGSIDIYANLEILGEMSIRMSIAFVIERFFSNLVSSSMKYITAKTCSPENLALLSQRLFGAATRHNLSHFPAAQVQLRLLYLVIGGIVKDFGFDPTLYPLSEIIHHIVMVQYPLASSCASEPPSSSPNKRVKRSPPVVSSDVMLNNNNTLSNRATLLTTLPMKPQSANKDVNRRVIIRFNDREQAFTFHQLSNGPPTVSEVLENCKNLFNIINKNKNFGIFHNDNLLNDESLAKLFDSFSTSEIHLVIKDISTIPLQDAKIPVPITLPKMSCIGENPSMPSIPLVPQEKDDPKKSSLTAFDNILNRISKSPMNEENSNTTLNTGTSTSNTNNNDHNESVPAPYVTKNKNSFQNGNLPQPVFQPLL
# Experiment: PBM E-score (8-mer binding enrichment) (E-score (-0.5 to 0.5)); higher = stronger / more preferred TF binding; most listed sequences are background and not binding sites
# Conditions: protein concentration: 200 nM; construct: GST-full length
# Outline: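 Each ungapped eight-base word and its reverse complement, pooled, received an E-score from the Universal PBM Analysis Suite. Underlying scans, normalised with masliner, recorded fluorescent anti-GST bound to GST-tagged yeast transcription factors. These were applied at about 100-200 nM to universal all-10-mer Agilent arrays double-stranded by primer extension.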
row,Sequence,PBM E-score
1,GGAATTTA,-0.0832
2,AAGCAACT,-0.208
3,CTATCGCC,-0.211
4,CAGATTCC,-0.102
5,CGCTAATC,0.0168
6,CCGTTAGC,-0.121
7,GCACCTCA,-0.0962
8,CATCTTAA,-0.0309
9,CGAGGTAG,-0.137
10,AACCTGAG,-0.0364
11,CTCAACGC,-0.0297
12,AAATGACG,0.0757
13,CGCTTCAG,-0.00511
14,CCAGGATA,0.132
15,CATGCGGA,-0.0312
16,AGTGCACC,0.087
17,ACACACAG,0.353
18,ACGTTATA,0.0245
19,ATGATGAG,0.196
20,CAGCACGC,-0.172
21,CGCACCCA,0.147
22,GTCTACTA,0.148
23,ACAACGGC,-0.105
24,ACAACCCA,0.149
25,AGTGCATC,-0.0425

row,Sequence,PBM E-score
1,AAGGGAGG,-0.0787
2,AAGGCGGA,0.0113
3,CGTCGACG,0.161
4,GTAGTTGA,0.277
5,CATTAGTC,0.257
6,ACCGTTGG,-0.0468
7,ACATGAGG,-0.0901
8,CTTTTACA,-0.0481
9,ATCCCACA,-0.00784
10,ATTCAGCC,-0.00318
11,ACGGGGTC,0.0818
12,ACGGCGCA,0.175
13,CGAAAGAC,-0.118
14,GGTGTAAC,0.0727
15,GAAAGAGC,-0.247
16,CCCAAACG,-0.0262
17,ATGCACGG,-0.0284
18,CCCACGGC,-0.0881
19,GCAGGCCA,0.117
20,GAATATGA,-0.00634
21,AGGGTCTA,-0.177
22,CATGCCCG,0.0303
23,GCAAAATA,0.00706
24,GCAATAGC,0.116
25,CGCAATGA,0.102

row,Sequence,PBM E-score
1,ATCAGTAA,0.155
2,CTTCTTCA,-0.0905
3,GGTCGACC,0.32
4,AGAATAAA,-0.169
5,ACAGAGTG,0.0123
6,AATGATAT,0.197
7,GTGCCTAA,-0.322
8,GACGGCTA,-0.00215
9,AGGGACAT,0.0563
10,TAAGAATA,-0.162
11,ATGCGTCG,0.0303
12,CAGTAAAA,-0.136
13,ATCGTGAA,-0.112
14,ACGGTATC,0.108
15,CCGATAGA,-0.121
16,CCTTTAGA,-0.269
17,CAACAACG,0.087
18,CATCATAA,0.133
19,AACGGCCC,-0.027
20,CCAGAAAA,-0.0398
21,CTAATGAC,-0.00978
22,CCGTGGTA,0.0539
23,GCGGTACC,0.0294
24,GTCGTGAA,-0.256
25,TGCCAGCA,-0.0298

row,Sequence,PBM E-score
1,TCACAGCA,0.207
2,GAATTAGC,-0.188
3,GAGATCAC,0.0658
4,AGAAGTAC,-0.192
5,AAAGTAAT,0.129
6,AACACACA,0.33
7,TGCGCAAA,-0.141
8,AACGGCGG,0.00313
9,CAACAGGG,0.0797
10,AGCGACCG,-0.107
11,ACCTCCGC,0.134
12,CAGACCAA,0.0253
13,CAAGGTTA,-0.175
14,AATAATTG,0.0205
15,CAAGCACA,-0.00197
16,CTTGTTCA,-0.144
17,ATAACGAA,0.0305
18,CCGTACGG,-0.385
19,AAAGTATA,-0.0402
20,ACAGTGGG,-0.133
21,CAAGCAAC,-0.035
22,ACCGAAGA,-0.0336
23,CTCGGCAA,-0.0876
24,AATTCTAG,-0.0244
25,ATTGGCTA,-0.0602

row,Sequence,PBM E-score
1,GTAACGTA,-0.0191
2,CTTTATCC,-0.245
3,AGTTTAGA,-0.129
4,AAACACGT,0.0232
5,AGGTGGAA,0.0199
6,CCTATAAG,-0.0556
7,ACAAGTCG,-0.0907
8,ACAGATCC,0.0599
9,AATCAATT,0.0578
10,AGGATACC,0.0279
11,AGGCACTA,-0.0871
12,AGCTAGCG,-0.23
13,ATACGTCC,-0.149
14,CATTTCTA,-0.233
15,AGAGTTGA,-0.032
16,AGATTTCG,-0.0515
17,TGTACCAA,0.0576
18,ACCGGCCG,0.0877
19,GAACCCAC,0.236
20,GACGGGAA,-0.0963
21,GAAGTCCC,-0.237
22,ATGATACG,0.228
23,CTCTGGCC,-0.0748
24,GTGACCAA,0.109
25,AGGGTGAC,0.2

row,Sequence,PBM E-score
1,GACCTTAA,-0.232
2,CTATATCC,-0.00727
3,ATATCCTC,0.0521
4,CGACATTC,0.0738
5,AGAGTACT,0.0467
6,CAACTTGG,0.0538
7,AGGGTGAG,0.0893
8,CCATGACA,0.115
9,CTGCTGGA,-0.027
10,ATAAACTC,0.0222
11,ACCTATTA,-0.0246
12,ACAAGCCA,0.0302
13,CAGTATCG,0.0981
14,ATTCATAA,0.0567
15,CCGCACAG,0.0492
16,CGGCAAGC,-0.173
17,CCCTGGCG,-0.0364
18,CTCGTGCC,-0.0421
19,AGGCAATG,0.0629
20,CCCCCTGC,-0.163
21,AGTCCTGC,0.0877
22,CTGAGCAC,0.0507
23,AAGGGGTC,-0.231
24,GCAGACGC,0.0308
25,GAGGTACA,-0.00768

row,Sequence,PBM E-score
1,CTCGTCGA,-0.0786
2,GCCTCCCC,0.0909
3,AACTGAAT,0.00051
4,CTATTCGC,0.0141
5,GTAATCAA,0.184
6,AACTATCT,0.0639
7,CGATGCTA,-0.0631
8,CATGACAC,0.239
9,CCAACATA,0.214
10,CAAGTCTG,-0.0798
11,CCCTAAGC,-0.218
12,CGTGCGCA,-0.034
13,CAGGGTGA,0.114
14,AGTCGCTC,0.237
15,CAGCATTC,-0.0944
16,ATCTGAAC,-0.131
17,ACTTCTGG,-0.04
18,ACTTTGTG,0.139
19,GTTACATA,0.0716
20,ACCAAATA,0.197
21,CGCCACGA,-0.0781
22,GCCTGCAC,-0.0376
